Results reported in a collection of fitness landscapes (doi:10.1038/s41467-024-54723-y).
In all, about 18,000 sequences were measured (“TetR repression strength (sort-seq, GFP reporter)”: median about 0.23, highest 2% from about 0.68 on). The list shows a part of the results.

biological target: TetR (class B, Tn10) (UniProt P04483); assay: TetR repression strength (sort-seq, GFP reporter) (relative to tetO2 = 1); higher = stronger repression; conditions: E. coli
Procedure, shortened: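 E. coli SIG10-MAX carried a low-copy plasmid library with eight randomized operator positions between a constitutive promoter and sfGFP, with TetR constitutively expressed. Cells grew 5 h at 37 °C in LB with 50 µg/mL chloramphenicol, then 10^6 cells were FACS-sorted into 13 fluorescence bins, each Illumina-sequenced. Repression strength is the top bin index plus one minus the read-weighted mean bin, divided by the wild-type operator value. Three independent transformations; variants with ≥30 reads in all replicates and CV ≤0.5 were averaged.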

Sequence of UniProt P04483 (P04483 whole entry): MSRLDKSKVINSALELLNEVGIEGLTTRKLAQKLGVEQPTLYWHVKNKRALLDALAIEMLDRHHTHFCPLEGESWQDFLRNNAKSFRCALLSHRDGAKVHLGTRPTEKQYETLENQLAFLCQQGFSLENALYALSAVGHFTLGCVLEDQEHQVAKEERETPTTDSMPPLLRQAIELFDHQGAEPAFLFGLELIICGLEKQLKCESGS

Question: With TCCCATGGAGTGGCAGAGA as the sequence, how does the TetR repression strength read?
Answer: 0.208

Question: With TCCCTGCCAGTGGATGAGA as the sequence, how does the TetR repression strength read?
Answer: 0.336

Question: For TCCCAGACAGTCGGGGAGA, which TetR repression strength is on record?
Answer: 0.182

Question: Which TetR repression strength does the source give for TCCCGTACAGTGTTGGAGA here?
Answer: 0.427

Question: TCCCGAATAGTCGAAGAGA was tested. Which TetR repression strength did it give?
Answer: 0.162

Question: With TCCCGTAGAGTTGGTGAGA as the sequence, how does the TetR repression strength read?
Answer: 0.278

Question: How did the TetR repression strength turn out when TCCCGTTGAGTCACGGAGA was run?
Answer: 0.106

Question: With TCCCGGAGAGTGGCCGAGA as the sequence, how does the TetR repression strength read?
Answer: 0.209

Question: With TCCCGCACAGTTCCGGAGA as the sequence, how does the TetR repression strength read?
Answer: 0.2

Question: How did the TetR repression strength turn out when TCCCACTAAGTGGCAGAGA was run?
Answer: 0.24

Question: TCCCACGAAGTTTTTGAGA was tested. Which TetR repression strength did it give?
Answer: 0.308

Question: Which TetR repression strength does the source give for TCCCTATTAGTAAAAGAGA here?
Answer: 0.518

Question: TCCCTTGCAGTGCTGGAGA was tested. Which TetR repression strength did it give?
Answer: 0.322

Question: TCCCCCGAAGTTGCCGAGA was tested. Which TetR repression strength did it give?
Answer: 0.549

Question: How did the TetR repression strength turn out when TCCCGGGGAGTTGTTGAGA was run?
Answer: 0.251

Question: TCCCGAGGAGTCAGCGAGA was tested. Which TetR repression strength did it give?
Answer: 0.138

Question: Which TetR repression strength does the source give for TCCCCCACAGTGATGGAGA here?
Answer: 0.12

Question: For TCCCATAAAGTTATTGAGA, which TetR repression strength is on record?
Answer: 0.618

Question: TCCCCAGGAGTATCGGAGA was tested. Which TetR repression strength did it give?
Answer: 0

Question: With TCCCCGCGAGTTAGCGAGA as the sequence, how does the TetR repression strength read?
Answer: 0.115

Question: For TCCCATAAAGTGACGGAGA, which TetR repression strength is on record?
Answer: 0.305

Question: For TCCCGTCCAGTCGCAGAGA, which TetR repression strength is on record?
Answer: 0.231

Question: TCCCGCGTAGTCGAGGAGA was tested. Which TetR repression strength did it give?
Answer: 0.138

Question: TCCCAAAGAGTTTTCGAGA was tested. Which TetR repression strength did it give?
Answer: 0.114

Question: TCCCTGAGAGTGACCGAGA was tested. Which TetR repression strength did it give?
Answer: 0.26

Question: With TCCCTGCAAGTAAGGGAGA as the sequence, how does the TetR repression strength read?
Answer: 0.183

Question: Which TetR repression strength does the source give for TCCCTGTAAGTCTTAGAGA here?
Answer: 0.193

Question: With TCCCGTCTAGTGTCTGAGA as the sequence, how does the TetR repression strength read?
Answer: 0.399

Question: For TCCCGCATAGTGTGGGAGA, which TetR repression strength is on record?
Answer: 0.306

Question: For TCCCACGTAGTGGGCGAGA, which TetR repression strength is on record?
Answer: 0.162

Question: With TCCCTCGGAGTTCAAGAGA as the sequence, how does the TetR repression strength read?
Answer: 0.334

Question: How did the TetR repression strength turn out when TCCCAGGCAGTGAGCGAGA was run?
Answer: 0.0936

Question: TCCCGTGAAGTGCGAGAGA was tested. Which TetR repression strength did it give?
Answer: 0.279

Question: With TCCCGAATAGTTTAAGAGA as the sequence, how does the TetR repression strength read?
Answer: 0.298

Question: How did the TetR repression strength turn out when TCCCGTGGAGTTGGCGAGA was run?
Answer: 0.111

Question: How did the TetR repression strength turn out when TCCCAGTTAGTGGATGAGA was run?
Answer: 0.195

Question: For TCCCCGAGAGTGGTAGAGA, which TetR repression strength is on record?
Answer: 0.294

Question: With TCCCTAAAAGTGCTGGAGA as the sequence, how does the TetR repression strength read?
Answer: 0.416

Question: Which TetR repression strength does the source give for TCCCCGAGAGTATGTGAGA here?
Answer: 0.199

Question: With TCCCATTTAGTGAGCGAGA as the sequence, how does the TetR repression strength read?
Answer: 0.272

Question: How did the TetR repression strength turn out when TCCCGTATAGTCTGGGAGA was run?
Answer: 0.198

Question: How did the TetR repression strength turn out when TCCCACGGAGTGGGTGAGA was run?
Answer: 0.274

Question: TCCCAGACAGTCAGAGAGA was tested. Which TetR repression strength did it give?
Answer: 0.168

Question: TCCCGGTAAGTTGGCGAGA was tested. Which TetR repression strength did it give?
Answer: 0.178

Question: TCCCGGTCAGTCGTAGAGA was tested. Which TetR repression strength did it give?
Answer: 0.38

Question: TCCCTCGGAGTAGGGGAGA was tested. Which TetR repression strength did it give?
Answer: 0.0342

Question: For TCCCGCGTAGTCGAAGAGA, which TetR repression strength is on record?
Answer: 0.104

Question: Which TetR repression strength does the source give for TCCCTGGTAGTACTGGAGA here?
Answer: 0.0313

Question: Which TetR repression strength does the source give for TCCCGCAGAGTGGTTGAGA here?
Answer: 0.101

Question: With TCCCTGGGAGTTGTGGAGA as the sequence, how does the TetR repression strength read?
Answer: 0.213

Question: For TCCCATCGAGTCTATGAGA, which TetR repression strength is on record?
Answer: 0.227

Question: With TCCCGATTAGTAGTTGAGA as the sequence, how does the TetR repression strength read?
Answer: 0.199

Question: TCCCTTAAAGTCAAGGAGA was tested. Which TetR repression strength did it give?
Answer: 0.416

Question: With TCCCGTTGAGTATATGAGA as the sequence, how does the TetR repression strength read?
Answer: 0.229

Question: Which TetR repression strength does the source give for TCCCGCGAAGTGTTAGAGA here?
Answer: 0.141

Question: Which TetR repression strength does the source give for TCCCCACGAGTTACAGAGA here?
Answer: 0.435

Question: For TCCCTGTCAGTGGACGAGA, which TetR repression strength is on record?
Answer: 0.342

Question: TCCCTACAAGTGTCAGAGA was tested. Which TetR repression strength did it give?
Answer: 0.21

Question: TCCCTTAGAGTATGTGAGA was tested. Which TetR repression strength did it give?
Answer: 0.0743

Question: How did the TetR repression strength turn out when TCCCGGCGAGTGAAAGAGA was run?
Answer: 0.31

Question: TCCCGGCGAGTCCGGGAGA was tested. Which TetR repression strength did it give?
Answer: 0.271

Question: Which TetR repression strength does the source give for TCCCGTGGAGTACGAGAGA here?
Answer: 0.204

Question: With TCCCCAGGAGTGGTCGAGA as the sequence, how does the TetR repression strength read?
Answer: 0.164

Question: Which TetR repression strength does the source give for TCCCAGGCAGTATTCGAGA here?
Answer: 0.115

Question: TCCCGGCAAGTTTAGGAGA was tested. Which TetR repression strength did it give?
Answer: 0.463

Question: For TCCCCACAAGTCTTAGAGA, which TetR repression strength is on record?
Answer: 0.319

Question: For TCCCTGGCAGTGAGGGAGA, which TetR repression strength is on record?
Answer: 0.197

Question: How did the TetR repression strength turn out when TCCCCTGGAGTGAAAGAGA was run?
Answer: 0.283

Question: How did the TetR repression strength turn out when TCCCATCCAGTTCAAGAGA was run?
Answer: 0.457

Question: For TCCCGGAGAGTTGGTGAGA, which TetR repression strength is on record?
Answer: 0.095

Question: TCCCCGAAAGTAGGTGAGA was tested. Which TetR repression strength did it give?
Answer: 0.104

Question: Which TetR repression strength does the source give for TCCCAGTAAGTGGCAGAGA here?
Answer: 0.206

Question: TCCCCCGGAGTGTCGGAGA was tested. Which TetR repression strength did it give?
Answer: 0.139

Question: For TCCCAGATAGTGGGGGAGA, which TetR repression strength is on record?
Answer: 0.173

Question: With TCCCTCGTAGTGTCGGAGA as the sequence, how does the TetR repression strength read?
Answer: 0.351

Question: For TCCCGGTTAGTGGTAGAGA, which TetR repression strength is on record?
Answer: 0.163

Question: For TCCCTGCGAGTATTTGAGA, which TetR repression strength is on record?
Answer: 0.391

Question: With TCCCGGCCAGTGCATGAGA as the sequence, how does the TetR repression strength read?
Answer: 0.465

Question: TCCCAGTAAGTAAAAGAGA was tested. Which TetR repression strength did it give?
Answer: 0.23

Question: TCCCACCGAGTACGGGAGA was tested. Which TetR repression strength did it give?
Answer: 0.135

Question: How did the TetR repression strength turn out when TCCCAGGAAGTGTGGGAGA was run?
Answer: 0.288

Question: TCCCGATAAGTTGCGGAGA was tested. Which TetR repression strength did it give?
Answer: 0.185

Question: TCCCATTGAGTAGGGGAGA was tested. Which TetR repression strength did it give?
Answer: 0.352

Question: How did the TetR repression strength turn out when TCCCCCGAAGTGAGGGAGA was run?
Answer: 0.445

Question: For TCCCGCCTAGTGGGGGAGA, which TetR repression strength is on record?
Answer: 0.215

Question: How did the TetR repression strength turn out when TCCCCCTTAGTACTAGAGA was run?
Answer: 0.299

Question: TCCCATAAAGTGTTAGAGA was tested. Which TetR repression strength did it give?
Answer: 0.283

Question: TCCCTACAAGTGCCGGAGA was tested. Which TetR repression strength did it give?
Answer: 0.202

Question: TCCCGTAGAGTTACGGAGA was tested. Which TetR repression strength did it give?
Answer: 0.185

Question: Which TetR repression strength does the source give for TCCCATGTAGTTCGAGAGA here?
Answer: 0.146

Question: How did the TetR repression strength turn out when TCCCTCTCAGTGTGGGAGA was run?
Answer: 0.234

Question: With TCCCCTGAAGTTAGGGAGA as the sequence, how does the TetR repression strength read?
Answer: 0.115

Question: With TCCCGTAGAGTGCTTGAGA as the sequence, how does the TetR repression strength read?
Answer: 0.181

Question: How did the TetR repression strength turn out when TCCCAATGAGTCTTGGAGA was run?
Answer: 0.172

Question: For TCCCCCTAAGTGATAGAGA, which TetR repression strength is on record?
Answer: 0.442

Question: Which TetR repression strength does the source give for TCCCAGCCAGTCCGCGAGA here?
Answer: 0.294

Question: How did the TetR repression strength turn out when TCCCGTATAGTCAACGAGA was run?
Answer: 0.206

Question: How did the TetR repression strength turn out when TCCCGTGTAGTCGGGGAGA was run?
Answer: 0.236

Question: TCCCCCCTAGTTGGGGAGA was tested. Which TetR repression strength did it give?
Answer: 0.205

Question: Which TetR repression strength does the source give for TCCCTATTAGTGAGTGAGA here?
Answer: 0.762

Question: Which TetR repression strength does the source give for TCCCCATCAGTGCTGGAGA here?
Answer: 0.157

Question: For TCCCAATCAGTTGTTGAGA, which TetR repression strength is on record?
Answer: 0.243
